What was measured:
MDA-MB231 cells = assay: Cytotoxicity on target cells (CCK-8 cell viability); assay type: cell-based, human; settings: HER2-negative breast cancer cell line; 72 hours; 3.1 to 200 ng/mL on the basis of SN-38; FIG. 3
Description: (§1) Cells used in the experiment were human breast cancer cell lines SKBR3 and MDA-MB231 and human gastric cancer cell lines NCI-N87 and MKN4 purchased from the Korean Cell Line Bank. An RPMI-1640 medium (Thermo fisher scientific, USA) supplemented with 10 % fetal bovine serum (FBS, Hyclone, Logan, UT, USA) and 1 % stereptomycin-peniciline (Invitrogen, Carlsbad, CA, USA) was used and cultured in a 5 % CO2 incubator at 37 °C. Cells used in each experiment were subcultured when the cells reached a confluency of about 80 % to 90 %.
(§2) Specifically, MDA-MB231 cells of a HER2-negative human breast cancer cell line as a normal control group, SK-BR3 cells of a breast cancer cell line that overexpresses a receptor recognized by HER2 Afb, and gastric cancer cell lines NCI-N87 and MKN-45 were seeded in a 96-well plate at a density of 1×10^4 cells/well, cultured for 24 hours, treated with KMD111 at different concentrations, and then, cultured for 72 hours. On the basis of the concentration of SN-38, the cells were treated at concentrations of 3.1, 6.2, 12.5, 25, 50, 100, and 200 ng/mL, respectively. After treated 96 wells with 10 µL of cck-8 (Dojindo, Japan) on the cultured plate, the cells were cultured for 1 hour. Here, a highly water-soluble tetrazolium salt, WST-8, is reduced by the dehydrogenase activity of the cells, and produces yellow formazan dyes that dissolve in a tissue culture medium. In this regard, the measured absorbance value is proportional to the number of viable cells. The absorbance at 450 nm was measured by using a microplate reader (Multiskan SkyHigh Microplate Spectrophotometer, Thermo fisher scientific, USA) to indicate cell viability compared to the control group, and the results are shown in FIG. 3.

NCI-N87 = assay: as above; assay type: cell-based, human; settings: gastric cancer cell line; 72 hours; 3.1 to 200 ng/mL on the basis of SN-38; FIG. 3
Description: as §1, §2

SKBR3 cells = assay: as above; assay type: cell-based, human; settings: HER2-positive breast cancer cell line; 72 hours; 3.1 to 200 ng/mL on the basis of SN-38; FIG. 3
Description: as §1, §2

MKN45 tumor = assay: In vivo anticancer efficacy in xenograft mouse model; settings: for tumor growth inhibition % (TGI %): compared to PBS-administered control group
Description: To confirm the anticancer effect of the KMD111 against target tumor cells, tests were performed in an in vivo environment using a mouse animal model transplanted with a human gastric cancer cell line MKN45.
(§3) Specifically, for the anticancer efficacy test, 6-week-old NIG mice (NOD/SCID, GH Bio Co., Ltd.) were purchased and bred in an environment of free access to feed and water, acclimated for more than 10 days, and then transplanted with tumor cells. As the tumor cells, HER2-positive gastric cancer MKN45 cells were subcutaneously administered at a dose of 5×10^6 cells/100 µL onto a fixed site on the left flank. After 1 week, a tumor was measured until the start of test substance administration, and individuals having tumors reached a size of about 150 mm^3 were selected and randomly distributed to each test group. Then, administration began.
(§4) The test group was divided into a PBS-administered control group and KMD111-administered groups at 3 mg/kg, 6 mg/kg, and 12 mg/kg based on SN-38, having three mice per group. Intravenous injection (IV) was performed once every three days for 21 days, a total of eight times. Then, the tumor size and body weight were measured from Day 11 after the cancer cell transplantation (Day 0) to the end date (for 32 days). The tumor size, relative tumor volume (RTV), and tumor growth inhibition % (TGI %) were calculated according to the following equations, by measuring a long axis length and a short axis length of the tumor. Tumor size((mm))^3 = (length×width^2)/2, (L:longaxis,W:shortaxis) [formula] RTV = (tumorsizeonfinalday)/(tumorsizeoninitialday) [formula] [formula]

[1] = Body weight and clinical symptoms in xenograft mouse model; assay type: in vivo; settings: 3, 6, 12 mg/kg based on SN-38, IV once every three days for 21 days
Description: as §3
as §4, with “[formula] […]” for “[formula] [formula]”

B1: KMD111 (conjugate)
chain: MAEKPKLHYFNARGRMESTRWLLAAAGVEFEEKFIKSAEDLDKLRNDGYLMFQQVPMVEIDGMKLVQTRAILNYIASKYNLYGKDIKERALIDMYIEGIADLGEMILLLPVCPPEEKDAKLALIKEKIKNRYFPAFEKVLKSHGQDYLVGNKLSRADIHLVELLYYVEELDSSLISSFPLLKALKTRISNLPTVKKFLQPGSPRKPPMDEKSLEEARKIFRFSGGGSGGGSGGGSGGGSGGGSGGGVDNKFNKEMRNAYWEIALLPNLNNQQKRAFIRSLYDDPSQSANLLAEAKKLNDAQAPK
Q: Which results are given for B1?
A: cytotoxicity (MDA-MB231 cells): less than 30%; apoptosis efficacy (NCI-N87): ≥ 70%; apoptosis efficacy (SKBR3 cells): ≥ 80%; tumor growth inhibition % (TGI %) (MKN45 tumor; 3 mg/kg based on SN-38, IV once every three days for 21 days): 79.5%; tumor growth inhibition % (TGI %) (MKN45 tumor; 6 mg/kg based on SN-38, IV once every three days for 21 days): 83.5%; tumor growth inhibition % (TGI %) (MKN45 tumor; 12 mg/kg based on SN-38, IV once every three days for 21 days): 92.5%; tumor size (MKN45 tumor; 3, 6, 12 mg/kg based on SN-38, IV, compared to the PBS-administered group, FIG. 5): significant reduction in tumor size in a concentration-dependent manner; clinical symptoms [1]: no special clinical symptoms were observed; body weight ([1]; FIG. 4): weight loss was observed
